{"source": "paper PMC9911399", "about": "“Two distinct binding modes provide the RNA-binding protein RbFox with extraordinary sequence specificity”", "binders": {"B1": {"name": "AAACGAG (DNA:RNA)", "RNA": "GGGAGACCGGAAUUCAGAUUGUCCAAACGAGUUAAAUCCCGUCGUAGCCACCA", "DNA 1": "CAATCTGAATTCCGGTCTCCC", "DNA 2": "TGGTGGCTACGACGGGATT"}, "B2": {"name": "GCCAUAC (DNA:RNA)", "RNA": "B1 RNA with A25G, A26C, A27C, C28A, G29U, G31C", "DNA 1": "CAATCTGAATTCCGGTCTCCC", "DNA 2": "TGGTGGCTACGACGGGATT"}, "B3": {"name": "CUUGUAC (DNA:RNA)", "RNA": "B1 RNA with A25C, A26U, A27U, C28G, G29U, G31C", "DNA 1": "CAATCTGAATTCCGGTCTCCC", "DNA 2": "TGGTGGCTACGACGGGATT"}, "B4": {"name": "GGCAUAU (DNA:RNA)", "RNA": "B1 RNA with A25G, A26G, A27C, C28A, G29U, G31U", "DNA 1": "CAATCTGAATTCCGGTCTCCC", "DNA 2": "TGGTGGCTACGACGGGATT"}, "B5": {"name": "CUGUCAC (DNA:RNA)", "RNA": "B1 RNA with A25C, A26U, A27G, C28U, G29C, G31C", "DNA 1": "CAATCTGAATTCCGGTCTCCC", "DNA 2": "TGGTGGCTACGACGGGATT"}, "B6": {"name": "GGUCAAU (DNA:RNA)", "RNA": "B1 RNA with A25G, A26G, A27U, G29A, G31U", "DNA 1": "CAATCTGAATTCCGGTCTCCC", "DNA 2": "TGGTGGCTACGACGGGATT"}, "B7": {"name": "UAACCAG (DNA:RNA)", "RNA": "B1 RNA with A25U, G29C", "DNA 1": "CAATCTGAATTCCGGTCTCCC", "DNA 2": "TGGTGGCTACGACGGGATT"}, "B8": {"name": "UCAUAAC (DNA:RNA)", "RNA": "B1 RNA with A25U, A26C, C28U, G29A, G31C", "DNA 1": "CAATCTGAATTCCGGTCTCCC", "DNA 2": "TGGTGGCTACGACGGGATT"}, "B9": {"name": "UGCCCAC (DNA:RNA)", "RNA": "B1 RNA with A25U, A26G, A27C, G29C, G31C", "DNA 1": "CAATCTGAATTCCGGTCTCCC", "DNA 2": "TGGTGGCTACGACGGGATT"}, "B10": {"name": "CCAUCAG (DNA:RNA)", "RNA": "B1 RNA with A25C, A26C, C28U, G29C", "DNA 1": "CAATCTGAATTCCGGTCTCCC", "DNA 2": "TGGTGGCTACGACGGGATT"}, "B11": {"name": "GAGGCAA (DNA:RNA)", "RNA": "B1 RNA with A25G, A27G, C28G, G29C, G31A", "DNA 1": "CAATCTGAATTCCGGTCTCCC", "DNA 2": "TGGTGGCTACGACGGGATT"}, "B12": {"name": "UUCAGCG (DNA:RNA)", "RNA": "B1 RNA with A25U, A26U, A27C, C28A, A30C", "DNA 1": "CAATCTGAATTCCGGTCTCCC", "DNA 2": "TGGTGGCTACGACGGGATT"}, "B13": {"name": "CUGAAUU (DNA:RNA)", "RNA": "GGGAGACCGGAAUUCAGAUUGUCCCUGAAUUUUAAAUCCCGUCGUAGCCACCA", "DNA 1": "CAATCTGAATTCCGGTCTCCC", "DNA 2": "TGGTGGCTACGACGGGATT"}, "B14": {"name": "GCACUAU (DNA:RNA)", "RNA": "B1 RNA with A25G, A26C, G29U, G31U", "DNA 1": "CAATCTGAATTCCGGTCTCCC", "DNA 2": "TGGTGGCTACGACGGGATT"}, "B15": {"name": "UUUUGAA (DNA:RNA)", "RNA": "B1 RNA with A25U, A26U, A27U, C28U, G31A", "DNA 1": "CAATCTGAATTCCGGTCTCCC", "DNA 2": "TGGTGGCTACGACGGGATT"}, "B16": {"name": "ACGAAUU (DNA:RNA)", "RNA": "B13 RNA with C25A, U26C", "DNA 1": "CAATCTGAATTCCGGTCTCCC", "DNA 2": "TGGTGGCTACGACGGGATT"}, "B17": {"name": "ACGCGGG (DNA:RNA)", "RNA": "B1 RNA with A26C, A27G, A30G", "DNA 1": "CAATCTGAATTCCGGTCTCCC", "DNA 2": "TGGTGGCTACGACGGGATT"}, "B18": {"name": "CUGUUGC (DNA:RNA)", "RNA": "B13 RNA with A28U, A29U, U30G, U31C", "DNA 1": "CAATCTGAATTCCGGTCTCCC", "DNA 2": "TGGTGGCTACGACGGGATT"}, "B19": {"name": "CUAGGAG (DNA:RNA)", "RNA": "B1 RNA with A25C, A26U, C28G", "DNA 1": "CAATCTGAATTCCGGTCTCCC", "DNA 2": "TGGTGGCTACGACGGGATT"}, "B20": {"name": "AGCAACG (DNA:RNA)", "RNA": "B1 RNA with A26G, A27C, C28A, G29A, A30C", "DNA 1": "CAATCTGAATTCCGGTCTCCC", "DNA 2": "TGGTGGCTACGACGGGATT"}, "B21": {"name": "GUAAGAA (DNA:RNA)", "RNA": "B1 RNA with A25G, A26U, C28A, G31A", "DNA 1": "CAATCTGAATTCCGGTCTCCC", "DNA 2": "TGGTGGCTACGACGGGATT"}, "B22": {"name": "CCGCCAG (DNA:RNA)", "RNA": "B1 RNA with A25C, A26C, A27G, G29C", "DNA 1": "CAATCTGAATTCCGGTCTCCC", "DNA 2": "TGGTGGCTACGACGGGATT"}, "B23": {"name": "ACAGGCA (DNA:RNA)", "RNA": "B1 RNA with A26C, C28G, A30C, G31A", "DNA 1": "CAATCTGAATTCCGGTCTCCC", "DNA 2": "TGGTGGCTACGACGGGATT"}, "B24": {"name": "GCGGAUA (DNA:RNA)", "RNA": "B13 RNA with C25G, U26C, A28G, U31A", "DNA 1": "CAATCTGAATTCCGGTCTCCC", "DNA 2": "TGGTGGCTACGACGGGATT"}, "B25": {"name": "ACGGGUG (DNA:RNA)", "RNA": "B1 RNA with A26C, A27G, C28G, A30U", "DNA 1": "CAATCTGAATTCCGGTCTCCC", "DNA 2": "TGGTGGCTACGACGGGATT"}, "B26": {"name": "CCACCCC (DNA:RNA)", "RNA": "B1 RNA with A25C, A26C, G29C, A30C, G31C", "DNA 1": "CAATCTGAATTCCGGTCTCCC", "DNA 2": "TGGTGGCTACGACGGGATT"}, "B27": {"name": "CAUGGCU (DNA:RNA)", "RNA": "B1 RNA with A25C, A27U, C28G, A30C, G31U", "DNA 1": "CAATCTGAATTCCGGTCTCCC", "DNA 2": "TGGTGGCTACGACGGGATT"}, "B28": {"name": "UAAAUUG (DNA:RNA)", "RNA": "B1 RNA with A25U, C28A, G29U, A30U", "DNA 1": "CAATCTGAATTCCGGTCTCCC", "DNA 2": "TGGTGGCTACGACGGGATT"}, "B29": {"name": "GUCAGCU (DNA:RNA)", "RNA": "B13 RNA with C25G, G27C, A29G, U30C", "DNA 1": "CAATCTGAATTCCGGTCTCCC", "DNA 2": "TGGTGGCTACGACGGGATT"}, "B30": {"name": "GACAGAU (DNA:RNA)", "RNA": "B1 RNA with A25G, A27C, C28A, G31U", "DNA 1": "CAATCTGAATTCCGGTCTCCC", "DNA 2": "TGGTGGCTACGACGGGATT"}, "B31": {"name": "UCGAACC (DNA:RNA)", "RNA": "B13 RNA with C25U, U26C, U30C, U31C", "DNA 1": "CAATCTGAATTCCGGTCTCCC", "DNA 2": "TGGTGGCTACGACGGGATT"}}, "note": "Changes are numbered by the printed parent chain; changes in the protein carry UniProt numbers. Some of the results follow.", "data": [{"biological_target": "T1, RBFOX1 RRM RbFoxmut (Fox-RRM*) (Homo sapiens, UniProt Q9NWB1 109-208, R118D;E147R;N151S;E152T)", "T1 sequence": "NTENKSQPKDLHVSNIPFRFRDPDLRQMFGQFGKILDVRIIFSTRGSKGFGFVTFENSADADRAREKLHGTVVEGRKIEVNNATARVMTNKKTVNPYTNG", "test": "EMSA; HiTS-Eq, 1 nM pool, 10 min; buffer printed only for the single-RNA assays: 10 mM Tris pH 7.5, 150 mM NaCl, 3.4 mM EDTA, 0.001% NP-40, 30 C", "settings": "tags: His6 N-terminal (pET28a); label: 5' 32P", "how_it_was_run": "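Purified RbFox RRM, wild type or mutant, was incubated for 10 min in 50 µL with 1 nM of a 5′-radiolabelled RNA pool carrying 7 randomized nucleotides, whose flanks were annealed to DNA oligonucleotides, over a series of increasing protein concentrations. Unbound RNA was resolved on 8% native PAGE, cut out, reverse-transcribed, barcoded by PCR and sequenced on an Illumina HiSeq 2500. Relative association constants were derived from changes in read counts for each RNA species versus the control reaction and normalised to the cognate motif.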", "values": [{"binder": "B1", "binding signal": "0.0778 KA relative to UGCAUGU"}, {"binder": "B2", "binding signal": "0.0951 KA relative to UGCAUGU"}, {"binder": "B3", "binding signal": "0.134 KA relative to UGCAUGU"}, {"binder": "B4", "binding signal": "0.112 KA relative to UGCAUGU"}, {"binder": "B5", "binding signal": "0.0886 KA relative to UGCAUGU"}, {"binder": "B6", "binding signal": "0.066 KA relative to UGCAUGU"}, {"binder": "B7", "binding signal": "0.0724 KA relative to UGCAUGU"}, {"binder": "B8", "binding signal": "0.0826 KA relative to UGCAUGU"}, {"binder": "B9", "binding signal": "0.0789 KA relative to UGCAUGU"}, {"binder": "B10", "binding signal": "0.113 KA relative to UGCAUGU"}, {"binder": "B11", "binding signal": "0.0508 KA relative to UGCAUGU"}, {"binder": "B12", "binding signal": "0.168 KA relative to UGCAUGU"}, {"binder": "B13", "binding signal": "0.0535 KA relative to UGCAUGU"}, {"binder": "B14", "binding signal": "0.0921 KA relative to UGCAUGU"}, {"binder": "B15", "binding signal": "0.0728 KA relative to UGCAUGU"}, {"binder": "B16", "binding signal": "0.134 KA relative to UGCAUGU"}, {"binder": "B17", "binding signal": "0.109 KA relative to UGCAUGU"}, {"binder": "B18", "binding signal": "0.132 KA relative to UGCAUGU"}, {"binder": "B19", "binding signal": "0.108 KA relative to UGCAUGU"}, {"binder": "B20", "binding signal": "0.106 KA relative to UGCAUGU"}, {"binder": "B21", "binding signal": "0.0745 KA relative to UGCAUGU"}, {"binder": "B22", "binding signal": "0.101 KA relative to UGCAUGU"}, {"binder": "B23", "binding signal": "0.126 KA relative to UGCAUGU"}, {"binder": "B24", "binding signal": "0.0859 KA relative to UGCAUGU"}, {"binder": "B25", "binding signal": "0.153 KA relative to UGCAUGU"}, {"binder": "B26", "binding signal": "0.0603 KA relative to UGCAUGU"}, {"binder": "B27", "binding signal": "0.107 KA relative to UGCAUGU"}, {"binder": "B28", "binding signal": "0.0911 KA relative to UGCAUGU"}, {"binder": "B29", "binding signal": "0.076 KA relative to UGCAUGU"}, {"binder": "B30", "binding signal": "0.0912 KA relative to UGCAUGU"}, {"binder": "B31", "binding signal": "0.125 KA relative to UGCAUGU"}]}]}
